Experimental findings from PMC6212790 are described below.

The list shows a part of the results. At the low end of the ranking the order means little.

This assay addresses T1, GST-Rok (full length) (UniProt O34857).
T1 sequence: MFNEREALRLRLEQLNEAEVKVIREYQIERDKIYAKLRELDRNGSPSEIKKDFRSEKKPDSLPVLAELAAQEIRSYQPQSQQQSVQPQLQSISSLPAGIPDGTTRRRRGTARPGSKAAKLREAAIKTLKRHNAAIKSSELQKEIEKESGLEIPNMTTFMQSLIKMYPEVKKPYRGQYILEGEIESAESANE
Briefly: protein binding microarray.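 Note: rank score from −0.5 (least bound) to 0.5 (best bound).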 Particulars: Rok is a gene silencer of Bacillus subtilis; high values mean tight binding; most listed sequences are background and not binding sites; double strand, one strand shown.
Sequence CCACAATC had a binding signal of -0.0329 E-score.
As for ATATGTCG, the figure is 0.154 E-score.
As for AACTCATA, the figure is -0.0624 E-score.
Take ACCATAGT: the binding signal was 0.207 E-score.
As for CTTCGGCC, the figure is -0.159 E-score.
The value for CGTTGGTA was 0.176 E-score; that for ACATCTGG was -0.0681 E-score.
The value for GCTCTGAC was -0.242 E-score; that for GCGTCTGA was -0.183 E-score.
TGGATGAA: the binding signal is -0.0888 E-score.
AAAGGGGC registered a binding signal of -0.415 E-score.
The value for CTGATTAC was 0.136 E-score.
The value for GCGCGCGC was 0.0925 E-score; that for CTCAAAGA was -0.0835 E-score; that for CAATGTCA was -0.0614 E-score.
As for CCAGGATA, the figure is -0.000931 E-score; as for AGGCCCCC, -0.446 E-score.
Regarding CGGCAAGA, the binding signal turned out to be 0.114 E-score.
The value for CGCTCGAC was -0.331 E-score; that for AAGGTCGG was -0.267 E-score.
As for CGAACGCC, the figure is -0.357 E-score; as for CAGGGACA, -0.26 E-score.
The value for GACGACAA was 0.0643 E-score.
GATTCGGC displayed a binding signal of -0.277 E-score.
The value for AACGATGC was 0.0279 E-score; that for CTCTTGTC was -0.13 E-score.
As for GCATACCC, the figure is 0.0368 E-score.
The value for GTTGGGTA was 0.179 E-score.
ACATAACG returned a binding signal of 0.157 E-score.
In the case of GAGCCGCA, the binding signal is -0.313 E-score.
As for GAGTCATC, the figure is -0.207 E-score.
As for AGGGTCAC, the figure is -0.107 E-score; as for CTACGTGA, -0.0406 E-score; as for CTCCACTC, -0.133 E-score.
For the sequence AGGGTTAT, the binding signal was -0.0286 E-score.
As for AACCTCAC, the figure is -0.146 E-score.
With CCACTTTC, the binding signal is -0.0318 E-score.
The value for CCTGTAGC was -0.137 E-score; that for AAGAGAGT was -0.074 E-score.
ACCCCAGG had a binding signal of -0.305 E-score.
AGGCATTG returned a binding signal of -0.101 E-score.
The value for GCATGGGA was -0.332 E-score; that for ACCTTAGC was 0.0341 E-score.
As for AAGCGTTG, the figure is -0.153 E-score; as for ATAAACTC, 0.15 E-score.
The value for CAAGATCG was 0.139 E-score; that for CCACATGC was -0.0754 E-score.
CAGGAGAC: the binding signal was -0.217 E-score.
The value for CCAGCCGG was -0.309 E-score; that for ACCTAGCG was 0.0946 E-score; that for ACAGCCTA was 0.0438 E-score.
As for ATTGGCCG, the figure is -0.208 E-score.
As for ACGAGCAT, the figure is 0.0943 E-score.
GCGTATAC showed a binding signal of 0.143 E-score.
The value for CTACAGCA was 0.152 E-score; that for AAAATCCG was -0.022 E-score.
As for GATAGAAC, the figure is 0.278 E-score; as for CGCTACCA, 0.2 E-score.
Sequence ATGATTTC gave a binding signal of 0.0874 E-score.
Regarding AAGATAAG, the binding signal is 0.0733 E-score.
The value for ACATATGG was 0.168 E-score; that for GGTGCAGA was -0.161 E-score; that for CCCCTTCA was -0.312 E-score.
On to AAGTCGAC, for which the binding signal is -0.0979 E-score.
As for ACTATCAG, the figure is 0.141 E-score; as for ATGGTGTG, 0.0504 E-score; as for GACAATGC, -0.153 E-score.
For the sequence AAAGGTTG, the binding signal is -0.0391 E-score.
The value for AGATGACC was -0.00541 E-score; that for GCGCTCAA was -0.23 E-score; that for ATAGTTCA was 0.218 E-score.
Turning to GGATCTAC, the binding signal is 0.306 E-score.
The value for AACACACT was 0.215 E-score; that for AGTGTCAC was -0.00213 E-score.
As for ACCACGAT, the figure is -0.0297 E-score.
The value for GCGGAAGA was -0.163 E-score; that for AGAGACCG was -0.191 E-score; that for ACCCTTAG was -0.136 E-score.
CCACTCCG yielded a binding signal of -0.204 E-score.
Turning to CTAGTTAA, the binding signal worked out at 0.349 E-score.
CTACTCAG: the binding signal stood at 0.0772 E-score.
The sequence ATTTGAAG displayed a binding signal of 0.0614 E-score.
The value for CAGGGAAG was -0.266 E-score; that for GTCGAAGA was -0.157 E-score.
As for CCCAGCGG, the figure is -0.336 E-score; as for GGATGAAA, 0.0855 E-score.
As for CAATCTCG, the figure is 0.0723 E-score; as for TAAAGTCA, 0.0321 E-score.
Regarding ATTGACAG, the binding signal turned out to be 0.0684 E-score.
As for CAGAGGAA, the figure is -0.105 E-score.
The value for GCGCGAAC was 0.0168 E-score; that for GAGACGAA was 0.0613 E-score; that for AACGTGGA was 0.0997 E-score.
TGACAGCA: the binding signal was -0.106 E-score.
As for ATTATACA, the figure is 0.363 E-score.
Sequence ATAGCGCC registered a binding signal of 0.0199 E-score.
The value for AACTAAAG was -0.0498 E-score; that for CCTGAGAC was -0.355 E-score; that for TGGGCCAA was -0.309 E-score.
The value for GCCAAAAC was -0.0966 E-score.
The value for ATGAAGCC was -0.182 E-score; that for TGAAAGAA was 0.145 E-score.
For GTAAAAGA, the binding signal turned out to be 0.207 E-score.
As for CGCGTACA, the figure is -0.0503 E-score; as for AGCAGCAC, -0.0929 E-score; as for AAGACCGA, -0.347 E-score.
The value for AGTCTCCC was -0.201 E-score; that for CACAACAA was 0.0872 E-score; that for AAAAGAGT was -0.0171 E-score.
GCCCCTAA: the binding signal was -0.324 E-score.
The value for AACGTACC was 0.0773 E-score.
As for GCCCATGA, the figure is -0.174 E-score; as for ATCCGCAG, -0.0663 E-score; as for AAGACGGC, -0.159 E-score.
As for CAGGACGA, the figure is -0.29 E-score.
The sequence ATTTGATC showed a binding signal of 0.213 E-score.
ATCAGCTA registered a binding signal of 0.0949 E-score.
Sequence GAAAAGGA showed a binding signal of -0.0603 E-score.
As for ACACTGGC, the figure is -0.124 E-score.
Consider AAGAGTCG, for which the binding signal is -0.139 E-score.
The value for CCTACGCG was -0.168 E-score.
In the case of CGAATAAG, the binding signal is -0.00303 E-score.
The value for AAACGAGA was 0.0318 E-score.
As for CCGTAATC, the figure is -0.114 E-score.
Sequence CCAATAGA had a binding signal of 0.0455 E-score.
In turn, ACACAAGC returned a binding signal of -0.0939 E-score.
The value for ACTGGCCC was -0.235 E-score.
The value for AGGCACCT was -0.166 E-score.
The value for ATCCTAGC was 0.0957 E-score.
For the sequence AACTACCA, the binding signal turned out to be 0.432 E-score.
As for CAGAAGGC, the figure is -0.174 E-score.
The value for GCCACGCC was -0.385 E-score; that for AGCACTTA was -0.0246 E-score; that for ATATACCG was 0.385 E-score.
The value for AGCCGCCT was -0.236 E-score.
On to GTGGCTTA, for which the binding signal was -0.247 E-score.
As for AGTTCTGC, the figure is 0.0876 E-score; as for ATCCGATG, 0.0514 E-score.
Sequence CACAGGCG came in with a binding signal of -0.263 E-score.
As for CCAGGCTA, the figure is -0.0835 E-score; as for CGTGCCGC, -0.244 E-score.
As for TCGTAACA, the figure is -0.047 E-score.
ATGCACTC came in with a binding signal of -0.11 E-score.
In turn, CTTGCTGA came in with a binding signal of -0.0525 E-score.
The value for AATCTGCC was 0.0619 E-score.
As for GGAGAGTA, the figure is -0.109 E-score; as for CAGCAGGA, -0.163 E-score; as for AGCATGTC, 0.0983 E-score.
AAGCTCCT: the binding signal is -0.222 E-score.
Sequence ACGTAAAC registered a binding signal of 0.0563 E-score.
Take GCTTCCAC: the binding signal was -0.251 E-score.
As to CGGCATAG, the binding signal is -0.182 E-score.
For CAAGCGAC, the binding signal was -0.133 E-score.
As for CGAATCCA, the figure is 0.0813 E-score; as for CCTTCGGA, -0.282 E-score.
As for GCGGATAC, the binding signal stood at 0.117 E-score.
As for ATTCGTTA, the figure is 0.228 E-score; as for ACGATGCG, -0.234 E-score.
The value for CTGCATGA was -0.128 E-score; that for GTGATAAA was 0.22 E-score.
As for ATATCCGG, the figure is 0.237 E-score; as for AGCGGCGG, -0.181 E-score; as for ACCGTTTG, 0.102 E-score.
As to ATTTCGTG, the binding signal is 0.133 E-score.
The value for AGTGGAGG was -0.0535 E-score; that for AAACCCTC was -0.202 E-score; that for CAATACAG was -0.06 E-score.
As for AACGAGCT, the figure is -0.281 E-score; as for AGCCGACT, -0.0879 E-score; as for CTTTTGAC, -0.0495 E-score.
As for AAGTTAGT, the figure is 0.285 E-score.
In the case of CCTTTACA, the binding signal is -0.043 E-score.
